Measurements reported in the supplement of paper PMC13380429.
Shown are results outside the selection of hits, which stands elsewhere.

Tested on: Vero E6 infected with SARS-CoV-2
Experiment: inhibition of SARS-CoV-2 cytopathic effect; higher = more antiviral protection, active = above 15
Conditions: 48 h

Measured: inhibition of SARS-CoV-2 cytopathic effect

Cc1ccc(C(=O)NCCCCCC(=O)Nc2ccccc2N)cc1
inactive: 1 nM -1.61% | 8.33 nM -0.58% | 100 nM -1.18% | 833.33 nM 2.18% | 10000 nM 1.85%

Cc1ccccc1-n1c(Cn2nc(-c3cccc(O)c3)c3c(N)ncnc32)nc2cccc(C)c2c1=O
inactive: 1 nM -1.47% | 8.33 nM 0.65% | 100 nM 0.25% | 833.33 nM -1.41% | 10000 nM 2.73%

CN1C2CCC1CC(OC(=O)C(O)c1ccccc1)C2 (stereo not given) [Homatropine Bromide]
inactive: 1 nM 1.2% | 8.33 nM -1.64% | 100 nM -3.44% | 833.33 nM -1.43% | 10000 nM -0.28%

COc1cc(N2CCN(C(C)=O)CC2)ccc1Nc1ncc(Cl)c(Nc2ccc(N3CCN(C(C)=O)CC3)cc2OC)n1
inactive: 1 nM -0.98% | 8.33 nM 0.49% | 100 nM -0.8% | 833.33 nM 2.01% | 10000 nM 1%

Cc1nc2c(-c3cnc(N)nc3)nc(N3CCOCC3)nc2n1C(C)C
inactive: 1 nM 2.51% | 8.33 nM 0.28% | 100 nM 3.48% | 833.33 nM -5.92% | 10000 nM -13.3%

CCC(C)C(C(=O)OCC[N+](C)(CC)CC)c1ccccc1 (stereo not given) [valethamate]
inactive: 1 nM 2.32% | 8.33 nM 0.57% | 100 nM 3.26% | 833.33 nM -0.11% | 10000 nM 3.21%

O=C1NC(=O)c2c1c(-c1ccccc1)cc1[nH]c3ccc(O)cc3c21
inactive: 1 nM 2.07% | 8.33 nM 1.35% | 100 nM 2.47% | 833.33 nM 6% | 10000 nM -1.83%
